# Reference: paper PMC4336329 (PLoS ONE, 2015)
# Hit rate of the full screen: of about 310,000 compounds, about 2,200 (0.71%) showed an effect of 50% or more. Effects have a minus sign here. The list shows a part of the results.
# Target: human ether-à-go-go-related gene (hERG) potassium channel (human, UniProt Q12809)
# Assay: primary screen, population patch clamp on CHO cells stably expressing hERG
# Chain of human ether-à-go-go-related gene (hERG) potassium channel (Q12809 whole entry, looked up): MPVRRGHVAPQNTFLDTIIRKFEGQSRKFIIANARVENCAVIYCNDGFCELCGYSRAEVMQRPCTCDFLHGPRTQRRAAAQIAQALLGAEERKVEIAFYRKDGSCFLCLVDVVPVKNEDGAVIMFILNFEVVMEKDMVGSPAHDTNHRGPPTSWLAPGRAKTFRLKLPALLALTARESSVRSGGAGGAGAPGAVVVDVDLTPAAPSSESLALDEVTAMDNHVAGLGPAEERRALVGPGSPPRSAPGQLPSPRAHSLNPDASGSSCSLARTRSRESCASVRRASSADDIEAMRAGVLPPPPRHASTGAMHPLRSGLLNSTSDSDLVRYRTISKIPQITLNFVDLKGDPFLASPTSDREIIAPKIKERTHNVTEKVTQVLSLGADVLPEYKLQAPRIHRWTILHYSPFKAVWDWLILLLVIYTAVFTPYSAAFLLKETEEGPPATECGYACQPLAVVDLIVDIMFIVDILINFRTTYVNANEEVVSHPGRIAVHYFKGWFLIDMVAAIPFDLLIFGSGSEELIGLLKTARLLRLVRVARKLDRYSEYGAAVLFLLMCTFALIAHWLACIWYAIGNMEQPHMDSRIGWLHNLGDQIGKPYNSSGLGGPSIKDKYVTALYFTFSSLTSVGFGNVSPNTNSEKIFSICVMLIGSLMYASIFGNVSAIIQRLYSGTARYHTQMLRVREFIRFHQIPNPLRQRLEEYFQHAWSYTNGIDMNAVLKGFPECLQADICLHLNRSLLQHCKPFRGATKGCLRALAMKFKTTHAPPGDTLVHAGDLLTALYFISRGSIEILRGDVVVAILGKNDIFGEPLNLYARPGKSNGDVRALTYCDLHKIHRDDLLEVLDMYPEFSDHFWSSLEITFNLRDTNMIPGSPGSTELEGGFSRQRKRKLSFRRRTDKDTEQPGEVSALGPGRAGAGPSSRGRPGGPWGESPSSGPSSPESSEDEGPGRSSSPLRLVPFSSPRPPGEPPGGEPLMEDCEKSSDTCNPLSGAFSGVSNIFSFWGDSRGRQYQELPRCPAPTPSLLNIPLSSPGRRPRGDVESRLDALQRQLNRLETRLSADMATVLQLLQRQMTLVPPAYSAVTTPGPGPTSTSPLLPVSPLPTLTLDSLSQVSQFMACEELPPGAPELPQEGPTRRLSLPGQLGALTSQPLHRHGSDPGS
row,SMILES,"hERG current change (%, negative = inhibition) at 1uM"
1,O=C(COc1cc(Cl)c(Cl)cc1Cl)Nc1cccc(O)c1,11.3%
2,Fc1ccc(Cn2cnc3ccccc32)cc1,4.34%
3,CC(C)c1nc(C(=O)N2CCc3c([nH]c4ccccc34)C2c2ccccn2)cs1 (centres unmarked),9.2%
4,O=C(/C(C=Nc1cc2c(oc1=O)CCCC2=O)=C(\O)c1ccccc1)c1ccccc1,20%
5,COc1ccc(C(CC(=O)NCc2ccco2)c2ccc(F)cc2)cc1 (centres unmarked),3.89%
6,O=C(CC(=O)c1ccccc1)Nc1cccnc1Cl,8.69%
7,CN(Cc1cc2ccccc2[nH]c1=O)S(=O)(=O)c1ccccc1,11.6%
8,O=c1[nH]n(CCO)c(=O)c2cccnc12,11.5%
9,O=c1c(-c2nc3ccccc3s2)cccn1Cc1ccccc1,0.851%
10,Cc1cc(-n2nc(C)cc2C)n2ncc(-c3ccccc3)c2n1,17.2%
11,CCc1ccccc1NC(=O)N1C2CCCC1CC(NC(=O)C(C)(C)C)C2 (centres unmarked),-12%
12,CCCCN(CCCNc1ncnc2nc[nH]c12)c1ccccc1,7.39%
13,CCN(CC(=O)NC(=O)NC1CCCCC1)Cc1nc2ccccc2c(=O)[nH]1,8.36%
14,COc1ccc(C(=O)NC2CCN(C(=S)Nc3ccc(C)c(C)c3)CC2)cc1,5.23%
15,COc1ccc(/C=C(\NC(=O)c2ccccc2)C(=O)N/N=C/c2ccncc2)cc1,10.4%
16,CCN(CC)c1ccc(/C=N/N2CCN(Cc3ccccc3Cl)CC2)cc1,15.6%
17,CN(CP(=O)(O)C(O)c1ccccc1)S(C)(=O)=O (centres unmarked),4.97%
18,Cc1cc(C)c2oc(C(=O)N(Cc3ccccc3)c3ccccn3)cc(=O)c2c1,6.86%
19,Cc1ccc(SCC(=O)NCCc2ccccc2)cc1,19%
20,NCCNC[C@@H]1COC2(CCCCCCCCCCC2)O1,11.5%
21,CCN(C(=O)c1ccc(NC(=O)Cc2ccccc2)cc1)c1ccccc1,-7.24%
22,COC(=O)[C@@H](NCc1cccc(CN[C@H](C(=O)OC)c2ccccc2)c1)c1ccccc1,7.42%
23,COC(=O)C1=C(C(=O)OC)[C@@H]2N(C)c3ccccc3[C@@]23C[C@@H](C(=O)OC)N(C(=O)c2ccco2)C3=N1,2.5%

row,SMILES,"hERG current change (%, negative = inhibition) at 1uM"
1,Cc1cccc(C(=O)OCC(=O)NCC(C)C)c1O,16.1%
2,Cc1cc(S(=O)(=O)NCCCn2ccnc2)c(C)cc1Cl,0.782%
3,O=S(=O)(NCCCCCNS(=O)(=O)c1ccccc1)c1ccccc1,11.4%
4,O=C(Nc1ccc(C(=O)N2CCCCC2)cc1)C1CCCCC1,0.109%
5,Cc1ccc(-c2nc(CN(C)C3CCOC3)c(C)o2)s1 (centres unmarked),7.45%
6,Cc1cc(C)cc(OCC(=O)N(Cc2ccc(N(C)C)cc2)C2CCS(=O)(=O)C2)c1 (centres unmarked),15.3%
7,CCOc1cc(NC(=S)NCC2CCCO2)c(OCC)cc1NC(=O)C1CC1 (centres unmarked),14.7%
8,Cc1ccc(NCc2nnc(SCC(=O)O)n2Cc2ccccc2)cc1Cl,14.4%
9,O=C(Nc1nc(=O)n(C(=O)C2CC2)s1)c1ccccc1,2.74%
10,CCOc1ccc(NC(=O)CN(C)C(=O)c2cc(-c3ccncc3)nc3ccccc23)cc1OCC,-0.704%
11,CCOC(=O)c1c(-c2cccc([N+](=O)[O-])c2)csc1NC(=O)CCCOc1ccccc1,6.83%
12,Nc1ccn(-c2ccc(Cl)cc2)c(=O)c1,12.3%
13,CCCCCCN=C(C)C1=C(O)C(C(=O)OC)C(C)(C)CC1=O (centres unmarked),-2.64%
14,O=c1oc2ccccc2c(Nc2ccccc2)c1CN1CCCCC1,-17.7%
15,Cc1cc(Cl)ccc1OCC(=O)NC1CCCC1,-0.343%
16,CC(C(=O)c1ccc(-c2ccccc2)cc1)[n+]1ccccc1.[Br-] (centres unmarked),10.6%
17,O=[N+]([O-])c1ccccc1S(=O)(=O)N1CCCC(C(F)(F)F)C1 (centres unmarked),8.01%
18,COc1ccc(N2CCN(C(=O)COC(=O)CCOc3cc(C)ccc3C)CC2)cc1,2.26%
19,CCc1cccc(OCCCCNCCOC)c1,10.7%
20,O=C1CC(Nc2ccc(N3CCOCC3)cc2)C(=O)N1c1ccccc1 (centres unmarked),16.3%
21,O=C1CC(c2ccco2)CC(O)=C1C=NCC1NCCc2ccccc21 (centres unmarked),1.21%
22,CCN(CC)S(=O)(=O)c1cccc(C(=O)NCCc2ccccc2)c1,-5.67%
23,O=C(O)c1cc(-c2ccc3ccccc3n2)nc2ccccc12,6.03%

row,SMILES,"hERG current change (%, negative = inhibition) at 1uM"
1,COc1ccc(CNC(=O)C/C(C)=N/NC(=O)C23CC4CC(CC(C4)C2)C3)cc1,7.33%
2,COc1cccc(N2C(=O)c3cccnc3C2O)c1 (centres unmarked),13.3%
3,COc1ccc(C2C(C#N)=C(N)Oc3cc(C)[nH]c(=O)c32)c(OC)c1OC (centres unmarked),8.69%
4,N#CCn1c(CN2CCCC2)nc2ccccc2c1=O,12.2%
5,CCN(CC)c1ccc(NC(=O)CCN2C(=O)c3ccccc3S2(=O)=O)c(C)c1,18.2%
6,CCC(=O)Nc1ccc(NC(=O)/C=C/c2ccc(Cl)cc2)cc1,17.8%
7,CC(C)N1CCN(C(=O)c2ccc(OC3CCN(CCc4ccccc4)CC3)cc2)CC1,7.01%
8,CC1N(O)C(c2ccc(Cl)cc2Cl)N(O)C1(C)C (centres unmarked),8.08%
9,COc1ccc(CCNC(=O)c2ccc(CS(=O)Cc3ccc(Cl)cc3)o2)cc1OC (centres unmarked),-4.01%
10,O=C(COC(=O)CN1C(=O)c2ccccc2C1=O)Nc1cccc(F)c1,5.95%
11,COc1cc(OC)cc(C(=O)N2CCN(C3CCN(Cc4ccccc4)CC3)CC2)c1.O=C(O)C(=O)O,0.551%
12,C=CCn1c(SCC(=O)Nc2ccc(C(=O)OC(C)C)cc2)nnc1-c1cccs1,9.31%
13,Cc1cccc(C)c1NC(=O)CN(C)C(=O)CC1CC2CCC1C2 (centres unmarked),13.4%
14,CCCc1[nH]n(-c2ccc([N+](=O)[O-])cc2)c(=O)c1C=NCCCn1ccnc1,-50.1%
15,COc1ccc(-n2ncc3c(NCCCn4ccnc4)ncnc32)cc1,-4.83%
16,CN(Cc1ccccc1)C(=O)CN1C(=O)C2C3C=CC(C3)C2C1=O (centres unmarked),2.89%
17,COc1ccc(CNC(=O)CN(C(=O)c2csnn2)c2cccc3ccccc23)cc1,1.15%
18,COc1ccccc1NC(=O)CSc1nc2c(sc3ccccc32)c(=O)n1CCN(C)C.Cl,15.1%
19,CC1=C(C(=O)OC(C)C)C(/C=C/c2ccccc2)NC(=O)N1 (centres unmarked),9.91%
20,CCCCNC(=O)c1cc(C)nn1-c1ccccc1,11.9%
21,CCOc1ccccc1-n1c(SCC(=O)Nc2nccs2)nnc1-c1ccoc1C,11.5%
22,CC1CC(=O)Nc2ccccc2N1S(=O)(=O)c1ccc(F)cc1F (centres unmarked),7.34%
23,O=S(=O)(c1cc(Cl)ccc1Br)N1CCOCC1,2.79%

row,SMILES,"hERG current change (%, negative = inhibition) at 1uM"
1,COc1cc(/C=N/NC(=O)c2sc3ccccc3c2Cl)ccc1OC(=O)c1ccc([N+](=O)[O-])cc1,9.73%
2,CC(C)[C@H](NC(=O)C1CC(=O)N(c2ccc(F)cc2)C1)C(=O)N1CCCCC1 (some centres unmarked),5.88%
3,S=c1[nH]nc2nnc3ccccc3n12,12.8%
4,CCCCc1ccc(NC(=O)c2ccc(NS(C)(=O)=O)cc2)cc1,17.1%
5,COc1ccc(OCCC(=O)Nc2nccs2)cc1,11.3%
6,CC(C)(C)n1nnnc1C(c1cccs1)N1CCN(C(=O)c2ccco2)CC1 (centres unmarked),-0.148%
7,COc1ccccc1N1CCN(CC(=O)c2ccc(F)cc2)CC1.Cl,16.7%
8,O=C(/C=C/Nc1ccccc1)c1ccc(Oc2ncccn2)cc1,7.54%
9,COc1ccc(CC(=O)Nc2ccc(S(=O)(=O)N(C)C)cc2)cc1OC,12.2%
10,O=C(Nc1cc(C(F)(F)F)ccc1-n1cncn1)C1CC1,13.7%
11,O=C(Nc1ccc(S(=O)(=O)Nc2nccs2)cc1)C1CC(=O)N(c2ccccc2)C1 (centres unmarked),10.2%
12,Cc1cccc(C2=NOC(=O)/C2=C\c2ccccc2F)c1,9.72%
13,O=C(COC(=O)c1cc([N+](=O)[O-])ccc1N1CCOCC1)Nc1c(Cl)cccc1C(F)(F)F,-3.01%
14,CC(C)c1ccc(NC(=O)NC(C)c2ccc3c(c2)OCO3)cc1 (centres unmarked),7.37%
15,O=C(O)CCCN1C(=O)C2C3C=CC(C2C1=O)C1C(=O)N(CCCC(=O)O)C(=O)C31 (centres unmarked),11.6%
16,COc1ccc(C2CC(=O)Oc3ccc(C(C)(C)C)cc32)cc1 (centres unmarked),4.67%
17,O=C(Cn1nnc(-c2ccc3c(c2)OCO3)n1)Nc1ccccc1C(=O)O,17.4%
18,COc1cc2c(cc1OC)C1(CCCCC1)CN(C)C2.Cl,-6.18%
19,C=CCN1C(=O)C(Cc2ccccc2)S/C1=N/N=C/c1cccs1 (centres unmarked),13.5%
20,OCCn1c(SCCOc2ccccc2)nc2ccccc21,3.95%
